For 126 compounds, Inhibition % results are on record in PMC9574860, “Chemical Toolkit for PARK7: Potent, Selective, and High-Throughput” (Journal of Medicinal Chemistry, 2022).

In all, about 7,900 compounds went through this assay and about 400 (5.1%) showed an effect of 50% or more. This is one part of the list.

Sequence of Parkinson's disease protein 7 (PARK7/DJ1) (Q99497 whole entry, looked up, the tested form may be a part): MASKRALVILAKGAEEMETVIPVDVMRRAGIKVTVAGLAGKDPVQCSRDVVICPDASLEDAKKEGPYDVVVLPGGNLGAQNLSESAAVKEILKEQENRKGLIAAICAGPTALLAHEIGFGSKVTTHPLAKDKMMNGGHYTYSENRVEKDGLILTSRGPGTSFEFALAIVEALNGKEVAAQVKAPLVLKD

The assay has as its target Parkinson's disease protein 7 (PARK7/DJ1) (human, UniProt Q99497). Briefly: primary screen, percent inhibition; read as competition with a fluorescent probe by fluorescence polarization; higher = more effect of the substance. As to conditions: 100 µM. Put shortly:
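Fluorescence-polarization probe displacement (JYQ-107, 20 nM final, 2 h) after 2 h preincubation of PARK7 (0.2 μM final) with each fragment at 100 μM final. Read-out ex/em 480/520 nm; remaining activity derived from FP signal loss relative to reference controls.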
For the compound `O=C(CCl)Nc1ncc(Cc2ccccc2Cl)s1`, the Inhibition % is on record as 1.2%. To `CC1CCCN(C(=O)C=Cc2ccnn2C)C1CN.Cl` (stereo not drawn) belongs 27.8%; to `O=S(=O)(C=Cc1ccccc1)NC1CCCn2ncnc21` (stereo not drawn), 12.3%; to `CC(C)Cn1c(-c2ncccn2)noc1=O`, 13.6%. In the case of `COc1ccc(COCC2CO2)cc1` (stereo not drawn), the Inhibition % is listed as 6.22%.

Regarding `C=CC(=O)N1Cc2ccc(Cl)cc2C1`, the Inhibition % was 3.47%. In the case of `C=CC(=O)Nc1ccn(CC(F)F)n1` it was 6.45%; in that of `N#Cc1c(NC(=O)c2cncc(F)c2)nc2n1CCS2`, 7.25%; in that of `Cc1cc(Cl)cnc1C#N`, 2.43%. Take `CO[C@H]1C[C@@H](CN(C)C(=O)c2c[nH]c(C#N)c2)N(C)C1`: the Inhibition % is given as 8.24%. In the case of `N#CC(=Cc1cccc2ccccc12)C(=O)NC1CC1`, the Inhibition % is recorded as 9.24%.

Turning to `Cc1ccccc1CN1CCCN(C(=O)CCl)CC1.Cl`, the Inhibition % came to 26.4%. On to `C=CC(=O)Nc1cn(C)nc1C(C)C`, for which the Inhibition % turned out to be 8.9%. Consider `Cl.Cl.NC1CCN(C2CCOC2=O)CC1` (stereo not drawn), for which the Inhibition % is 5.74%. As for `CC1Cc2ccccc2N1C(=O)Cn1cnc(C#N)n1` (stereo not drawn), the Inhibition % was determined as 5.82%. For `C=CC(=O)N1CC2(CCOCC2)C1`, the Inhibition % is 23%. As for `C1COCCN1.N#Cc1c(C(F)(F)F)cc(=O)[nH]c1S`, the Inhibition % was 9.53%.

`O=S1(=O)CCCN1c1cccc(NCc2cccc(B(O)O)c2)c1`: the Inhibition % amounted to 6.59%. As for `C#Cc1ccc(C=C(C#N)C(=O)Nc2ccncc2)cc1`, the Inhibition % amounted to 73.3%. For the compound `C=CC(=O)NCCN(C)C1CCCCC1`, the Inhibition % is given as 10.8%.

Turning to `CCC1CN(S(=O)(=O)c2ccc(S(=O)(=O)F)cc2)C(C)CO1` (stereo not drawn), the Inhibition % is 13.4%.

On to `CC1(C)OB(c2cnc(N)nc2)OC1(C)C`, for which the Inhibition % turned out to be 5.6%. As for `C=C(Cl)CSc1nnc(N)s1`, the Inhibition % was found to be 1.46%. As to `O=C1OCCC1Sc1nnnn1-c1cccc(F)c1` (stereo not drawn), the Inhibition % worked out at 13.6%. With `CC1(C)OB(c2ccc(C(F)C(F)(F)F)cc2)OC1(C)C` (stereo not drawn), the Inhibition % turned out to be 3.09%. On to `CC(=O)N1CCC(CCl)CC1`, for which the Inhibition % is recorded as 2.96%.

Consider `C=CC(=O)NCc1nnc(C2CC2)o1`, for which the Inhibition % is given as 6.84%.

Take `CS(=O)(=O)OCC1CCCCCC1`: the Inhibition % worked out at 17.5%.

As to `CC(NC(=O)CCl)c1ccc2c(c1)OCO2` (stereo not drawn), the Inhibition % is listed as 10.2%. To `Cc1ccc(S(=O)(=O)F)nn1` belongs 65.4%; to `COC(=O)c1ccc(Cl)c(S(=O)(=O)F)c1`, 9.08%; to `C=CC(=O)NCC1CCC2(COC(C)C2)O1` (stereo not drawn), 2.62%. Turning to `CCN(C(=O)Cn1c(S)nc2ccccc2c1=O)C1CC1`, the Inhibition % worked out at 0.694%. Consider `Cc1nn(-c2ccccc2)c(N)c1SC#N`, for which the Inhibition % is recorded as 2.07%. In the case of `C=CC(=O)NCCc1nc2c(s1)CCCC2` it was 10.8%.

For `C=CC(=O)N1CCCC(c2nnc3n2CCC3)C1` (stereo not drawn), the Inhibition % is 5.59%. Take `Cc1ccc2[nH]c3c(c2c1)CN(C(=O)n1ccnc1)CC3`: the Inhibition % turned out to be 67.1%. `O=C1OCCC1N1CCN(C(=O)CC2CCCCC2)CC1` (stereo not drawn): the Inhibition % amounted to 13.6%.

For `CN(C)CCOc1cccc(B2OC(C)(C)C(C)(C)O2)c1`, the Inhibition % is on record as 5.32%. Regarding `C=CCNC(=O)C(C#N)=Cc1ccccc1Cl`, the Inhibition % was 11.9%. As for `CC(=O)Nc1ccc(C=C(C#N)c2nc(C)cs2)cc1`, the Inhibition % came out at 5.75%.

Consider `COC(=O)c1cc(N)cc(B2OC(C)(C)C(C)(C)O2)c1C`, for which the Inhibition % was found to be 10.6%.

Take `CC(=O)Nc1ccc(OCC2CO2)cc1` (stereo not drawn): the Inhibition % is 9.41%. Regarding `OB(O)c1cc(F)cc2ccoc12`, the Inhibition % is listed as 2.99%. Take `CC(C)NC(=O)C(C#N)=Cc1ccccc1OC(C)C`: the Inhibition % worked out at 3.42%. To `C=CC(=O)N1CCN(C2CC2)c2ccccc21` belongs 15.7%; to `C=CC(=O)NCc1cc(OC)nc2ccccc12`, 1.86%. On to `N#Cc1ncn(Cc2cccc(Cl)c2)n1`, for which the Inhibition % came out at 5.75%. For `ClCC1CN(Cc2ccccc2)CCO1` (stereo not drawn), the Inhibition % was determined as 6.82%. Regarding `Cc1nc(C=CC(=O)N2CC(C(N)=O)CCC2C)cs1` (stereo not drawn), the Inhibition % is -0.565%. In the case of `N#CC(=Cc1ccc(O)cc1)C(=O)O` it was 5.87%; in that of `Cc1ccc(S(=O)(=O)n2cccn2)cc1`, 6.92%; in that of `C=CC(=O)NCc1cccc(C(=O)O)c1`, 10.6%.

`COC(=O)c1ccc(C)c(B2OC(C)(C)C(C)(C)O2)c1`: the Inhibition % is on record as 5.09%.

Consider `C=CC(=O)NC1CC(C)(F)C1` (stereo not drawn), for which the Inhibition % turned out to be 0.437%. Turning to `COc1cc(NC(=O)CCl)c(Cl)cc1C(=O)O`, the Inhibition % is listed as 13.3%. On to `C=CC(=O)N1CCSC(C)C1C` (stereo not drawn), for which the Inhibition % was 7.23%. `N#CC(=Cc1ccc(-c2nc3ccccc3s2)o1)C(=O)O`: the Inhibition % is reported as 3.06%.

As for `OB(O)c1cc(F)cc(COC2CCCCC2)c1`, the Inhibition % is -3.11%. In the case of `SCCc1nn[nH]n1` it was 14.9%; in that of `C=CCNC(=O)C(C#N)=Cc1ccc(C)s1`, -1.57%; in that of `C=CC(=O)N1CC(F)(c2ccccc2F)C1`, 6.22%.

Regarding `O=C(CCl)Nc1ccc(Cl)c([N+](=O)[O-])c1`, the Inhibition % was 29.8%. As to `CC(NC(=O)c1c[nH]c(C#N)c1)C(C)(F)F` (stereo not drawn), the Inhibition % is on record as 6.11%. For `C=CC(=O)N1CCC(Cc2ccccn2)CC1`, the Inhibition % was determined as 7.51%. As for `C=CC(=O)NC1CC2OCCCC12` (stereo not drawn), the Inhibition % is 9.61%.

For `O=C(NC1CCOC2(CCCCC2)C1)c1cccnc1S` (stereo not drawn), the Inhibition % turned out to be 6.61%. As to `C=CC(=O)N1CCCC(Cn2cncn2)C1` (stereo not drawn), the Inhibition % stood at 1.6%. Regarding `C=CC(=O)Nc1ccc(OC)cc1`, the Inhibition % stood at 5.38%. To `C=CC(=O)NC1CCOC(C(C)C)C1` (stereo not drawn) belongs 9.78%; to `C=CC(=O)Nc1nc2c(s1)COCC2`, 6.4%. On to `COC(=O)C1OC12CCCOC2` (stereo not drawn), for which the Inhibition % is 3.97%. Turning to `CCc1[nH]c(S)nc(=O)c1C`, the Inhibition % turned out to be 8.89%. Consider `CC1CCCN(CCCl)C1.Cl` (stereo not drawn), for which the Inhibition % is reported as 4.27%. As for `C=CC(=O)NC(c1cccnc1)C1CC1` (stereo not drawn), the Inhibition % was determined as 7.66%. In the case of `CN(Cc1nc2ccccc2[nH]1)S(=O)(=O)C1=CCCCC1`, the Inhibition % came out at 8.82%. For `C=CC(=O)N1CCC(c2cc(C(=O)O)n(C)n2)CC1`, the Inhibition % turned out to be 10.5%. To `CC1(C)SC(=O)N(Cc2cccnc2)C1=O` belongs 4.44%; to `Cc1nn(C)c(Cl)c1C=CC(=O)N1CCC(C(=O)O)C1.Cl` (stereo not drawn), 7.34%; to `O=C(c1ccc(Cl)cc1F)N1CCCCC1C1OCCO1` (stereo not drawn), 1.46%. Consider `C=CC(=O)NC(C)c1ccc2c(c1)OC(CC)C(=O)N2` (stereo not drawn), for which the Inhibition % worked out at 2.83%. With `CN1CCC(Nc2ccc(C#N)nc2)C1c1ccccc1` (stereo not drawn), the Inhibition % is -1.06%. As for `Cc1cc(NS(=O)(=O)C=Cc2ccccc2Cl)n(C)n1`, the Inhibition % was 8.51%. In the case of `Cc1ncc(C=CC(=O)N2CCC(C(=O)O)C2)s1.Cl.Cl` (stereo not drawn) it was 7.82%; in that of `O=c1c2ccccc2nc(S)n1CCS`, 7.43%; in that of `N#Cc1ncn(CC2CCC(F)(F)CC2)n1`, 17.4%. With `CC1Oc2ccccc2N(CCCl)C1=O` (stereo not drawn), the Inhibition % was found to be 15.4%.

As to `Cc1cc(NC(=O)CCl)n(-c2ccc(F)cc2)n1`, the Inhibition % is recorded as 16.3%.

As for `O=c1onc(-c2ccccc2)n1CC1CCOC1` (stereo not drawn), the Inhibition % is 2.8%. As for `COc1ccc2nc(NC(=O)CCl)sc2c1`, the Inhibition % is reported as 14.5%. `C=CC(=O)NC1CCOc2c(F)cccc21` (stereo not drawn): the Inhibition % stood at 4.11%. To `CCCn1c(C)cc(C=C(C#N)C(=O)O)c1C` belongs 10.4%; to `C=CC(=O)NC1CCCCCCC1`, 6.94%. On to `N#Cc1cccc(Oc2ccc(C(=O)NC3CC3)cc2)n1`, for which the Inhibition % was determined as 3.09%.

On to `Cc1nc(C(C)C)oc1Cn1ccnc1C#N`, for which the Inhibition % worked out at 8.62%. As for `CNC(=O)Oc1cccc2ccccc12`, the Inhibition % came out at 15.7%. In the case of `C=CC(=O)N1CCC2(CC1)OCCCO2`, the Inhibition % was found to be 5.02%. On to `O=C(CCl)Nc1cccc(Oc2ccccc2)c1`, for which the Inhibition % was 55.6%. For the compound `Cn1nccc1C=CC(=O)N1CCOCC1`, the Inhibition % is 24.5%. In the case of `C=CC(=O)NCC1CCOC1` (stereo not drawn), the Inhibition % is reported as 14.2%.

For the compound `C=CC(=O)N1C[C@@H]2C[C@H](C1)c1cccc(=O)n1C2`, the Inhibition % was found to be 9.87%. In the case of `C=CC(=O)N1CCCC(c2ncno2)C1` (stereo not drawn) it was 10.3%; in that of `N#Cc1ccc(NC2CC(F)(F)C2)cn1`, 4.45%. In the case of `OB(O)C1CCN(Cc2ccccc2)C1` (stereo not drawn) it was 10.1%; in that of `Cc1cccc(C)c1OCCNC(=O)CCl`, 8.34%; in that of `C=CC(=O)NCC1CCCN(c2nccn3cnnc23)C1` (stereo not drawn), 16.5%.

Regarding `CC1(C)OB(c2ccc(C(F)(F)F)cc2C#N)OC1(C)C`, the Inhibition % stood at 8.26%. In the case of `C=CC(=O)N1CCCC1C1COCCC1(C)O` (stereo not drawn) it was 3.6%; in that of `CC(CNc1nccnc1C#N)c1ccc(F)c(F)c1` (stereo not drawn), 22.4%; in that of `C=CC(=O)NC1CCN(c2cccc(C(F)(F)F)c2)CC1`, 2.44%. With `C=CS(=O)(=O)Nc1ccccc1`, the Inhibition % was 6.78%. For the compound `CC(NC(=O)c1cccnc1S)c1nnc2n1CCCC2` (stereo not drawn), the Inhibition % stood at 14.4%.

`C=CC(=O)NC1CCC(c2nc(C)no2)CC1` (stereo not drawn): the Inhibition % is recorded as 4.65%. With `Cn1cccc1S(=O)(=O)F`, the Inhibition % was determined as 14.2%. Take `Cc1ccnc(NC(=O)CCN2C(=O)CCC2=O)c1`: the Inhibition % came out at 2.55%. In the case of `CN(C)C=C(C#N)c1ccccn1` it was 19.1%; in that of `Cc1nn(C)c(Cl)c1C=CC(=O)N1CCOCC1`, 21.5%. For `N#Cc1nc(Cl)ccc1F`, the Inhibition % is 8.62%. In the case of `C=CC(=O)N1CCCCC1c1ccccc1` (stereo not drawn) it was 12.3%; in that of `COc1ccc(CN(C)C(=O)CCl)cc1F`, 58.3%.

Take `CC1(C)OB(c2ccc(S(C)(=O)=O)cc2)OC1(C)C`: the Inhibition % amounted to 3.95%.

On to `C=CC(=O)N1CCN(CC2CCOCC2)CC1`, for which the Inhibition % was determined as 12.9%. Consider `C=CC(=O)N1CCC(Cc2cccnc2)CC1`, for which the Inhibition % is 11%. In the case of `O=C(CCl)c1ccc(C(F)(F)F)cc1` it was 12%.

For `C=CC(=O)N1CCOc2ccc(S(C)(=O)=O)cc21`, the Inhibition % is listed as 13.6%. For the compound `C=CC(=O)N1CC(S(=O)(=O)N2CCc3ccccc32)C1`, the Inhibition % came out at 3.57%.
